Experimental data published in PubChem BioAssay AID485313 (National Center for Advancing Translational Sciences (NCATS), 2010).
Out of some 320,000 compounds screened, about 7,600 (2.4%) were called active. Inconclusive means that the source gave no clear call. Such entries were picked first, then a sample of the others. Calls come from the whole dose curve; as a rule, active = well fitted activation curve with a large enough effect; inconclusive = small, poorly fitted or top-dose-only effect; inactive = no such curve, though single readings can be large or run the other way. No potency is given beside an inconclusive call; the fits are too rough.

Assay: qHTS Assay for NPC1 Promoter Activators; note: nearly all actives have a fitted effect of over 60% in size;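 for activation: reporter is driven by a mutant NPC1 promoter; % of control where 0% means no effect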
Conditions: Huh7 NPC1 promoter luciferase reporter, 24 h; series mostly up to 9.22 µM; activation: at the top concentration
How it was run: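 Huh7 reporter cells (NPC1 promoter driving luciferase) are dosed with compound for 24 h at 37 °C, 5% CO2; luciferase detection reagent is then added and luminescence measured after 10 min at ambient temperature.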
Potency is the fitted concentration of half-maximal effect; tags give direction and shape of the fitted curve.

Structure (SMILES) | Potency | activation
Cc1cccc(C(=O)Nc2ccc(O)cc2)c1 | inconclusive [activator, single point] | 
COc1ccc(NC(=O)c2cccc(N3C(=O)C4C5C=CC(C6CC56)C4C3=O)c2)c(OC)c1 (configuration not stated) |  | inactive: -2.71%
Cc1ccc(S(=O)(=O)NCc2ccccc2)cc1C(=O)NC1CCC(C)CC1 (configuration not stated) | inconclusive [activator, partial curve] | 
CCC(=O)OC1(C)C(=O)C2=COC(c3ccc(OC)cc3)=CC2=C(Br)C1=O (configuration not stated) |  | inactive: -7.96%
COc1ccc(Nc2ccnc(Nc3ccc(OC)cc3)n2)cc1 | inconclusive [activator, partial curve] | 
CCOC(=O)Cc1csc(NC(=O)c2cnc3sc(C)cn3c2=O)n1 | inconclusive [activator, single point] | 
Cc1ccc(C(=O)Nc2ccc(N3CCOCC3)cc2)cc1 | active: 2.82 µM | 
Cc1cc(C)cc(C(=O)NCC(=O)OCc2nc(N)nc(Nc3ccccc3C)n2)c1 |  | inactive: -2.56%
O=C(Nc1nnc(C2CC2)s1)c1ccc(Cl)nc1 | inconclusive [activator, partial curve] | 
Cc1cc(NC(=O)COc2ccccc2C#N)no1 | inconclusive [activator, partial curve] | 
Cc1ccc(C(C(=O)NC2CCCCC2)N(Cc2cccnc2)C(=O)C2COc3ccccc3O2)o1 (configuration not stated) | inconclusive [activator, single point] | 
O=C(/C=C/c1ccc(-c2cccc([N+](=O)[O-])c2)o1)N1CCOCC1 | inconclusive [activator, partial curve] | 
COc1ccc(C2=NOC(CN3C(=O)c4ccccc4S3(=O)=O)C2)cc1 (configuration not stated) | active: 1.26 µM | 
O=C(O)c1cccc(Oc2ncnc3sc4c(c23)CCCC4)c1 |  | inactive: -1.4%
C=CCc1ccc(OCC(O)COCC)c(OC)c1 (configuration not stated) | inconclusive [activator, partial curve] | 
Cc1nc2cc3nc(C)sc3cc2s1 | inconclusive [activator, partial curve] | 
CCc1cccc2c(C(=O)COC(=O)c3ccccc3)c[nH]c12 | inconclusive [activator, partial curve] | 
O=C(Nc1ccccc1)C(=O)Nc1cccnc1 | active: 0.501 µM | 
NS(=O)(=O)c1cccc(NC(=O)c2cc3ccccc3o2)c1 | inconclusive [activator, single point] | 
O=C(NCc1nc(-c2ccccc2)cs1)c1ccccc1 |  | inactive: 1.2%
COc1ccc(N=Cc2oc3ccc4ccccc4c3c2O)cc1 | inconclusive [activator, single point] | 
Cc1c(C(=O)O)cccc1-c1ccc(/C=N/Nc2ccc(Br)cc2)o1 | inconclusive [activator, partial curve] | 
CCN(C(=O)c1ccco1)c1nnc(-c2cccnc2)s1 | inconclusive [activator, partial curve] | 
Cc1cc(C(=O)CSc2nnnn2C)c(C)n1Cc1ccco1 | active: 2.82 µM | 

Structure (SMILES) | Potency | activation
CCc1ccc(/C=C2/C(=O)NC(=O)N2C(C)=O)cc1 |  | inactive: 15.2%
Cc1ccc(C(=O)Nc2cccc(C(=O)N/N=C/c3ccc(O)cc3)c2)cc1 | active: 1.41 µM | 
CN1CCC(=O)N([C@H](CSc2ccc(Br)cc2)c2ccccc2)CC1 | inconclusive [activator, single point] | 
Cc1ccc(C(=O)Cn2nnc(-c3cccs3)n2)cc1 | inconclusive [activator, single point] | 
COCCn1c(C)cc(C2=NNC(=NC(C)(C)C)SC2)c1C | inconclusive [activator, single point] | 
O=C(CCC(=O)N1CCOCC1)NCc1cccc(C(F)(F)F)c1 |  | inactive: -0.879%
CC(=O)c1ccc(NC(=S)N2CCCC(CO)C2)cc1 (configuration not stated) | inconclusive [activator, partial curve] | 
Cc1ccc(C(=O)Nc2ccc3c(c2)OCO3)cc1S(=O)(=O)N1CCOCC1 | inconclusive [activator, partial curve] | 
Cc1cc(C)nc(NC(=O)/C=C/c2ccc(Cl)cc2Cl)c1 | inconclusive [activator, single point] | 
Cc1cc(C)nc(N2CCCC(C(=O)Nc3nc4ccc(S(C)(=O)=O)cc4s3)C2)n1 (configuration not stated) |  | inactive: -3.18%
CNc1nc(-c2ccc3c(c2)CCN3C(=O)c2ccccc2C)cs1 | active: 3.98 µM | 
Cc1cccc(NC(=O)c2ccc3c(c2)CCN3S(C)(=O)=O)c1 | inconclusive [activator, partial curve] | 
CCc1nonc1NC(=O)c1oc2cc(C)c(C)cc2c1C | inconclusive [activator, partial curve] | 
COc1ccccc1C(=O)NNC(=O)c1ccccc1F | inconclusive [activator, single point] | 
COc1ccc(NC(=O)c2cccs2)cc1 | inconclusive [activator, partial curve] | 
COc1ccc(C)c2sc(=NC(=O)c3ccccc3)n(C)c12 | inconclusive [activator, single point] | 
CCOC(=O)N/N=C/C=C/c1ccccc1 | inconclusive [activator, single point] | 
Cc1cccc(Cn2cc(SCC(=O)Nc3nccs3)c3ccccc32)c1 | inconclusive [activator, partial curve, poor fit] | 
O=S(=O)(N/N=C/c1ccccc1OCc1ccc(Cl)cc1)c1ccccc1 |  | inactive: 0.874%
CCOc1ccc(NC(=O)c2ccc(OC)cc2)cc1 | inconclusive [activator, partial curve] | 
CSc1cccc(NC(=O)/C=C/c2ccccc2)c1 | active: 3.16 µM | 
COC(=O)Cc1ccc(NC(=O)c2cccs2)cc1 | inconclusive [activator, partial curve] | 
O=[N+]([O-])c1cccc(/C=C/c2ccc3cccc(O)c3n2)c1 | inconclusive [activator, single point] | 
